Assay results taken from US11723894B2, “Combination product for the treatment of neurological and/or psychiatric disorders” (Consejo Superior de Investigaciones Cientificas (CSIC), priority 2017, dated 2023).

How the values were obtained:
[1] = system: adult neural stem cells derived from the subgranular zone of the hippocampus; assay: Differentiation of neurospheres into neurons and glial cells (Tuj1, MAP-2, CNPase, GFAP); details: for effect on Tuj1 and MAP-2 expression in the presence of Ritanserin: tryptamine 1 μM after 1 h pre-treatment with Ritanserin 1 μM; for expression of the two neuronal markers Tuj1 and MAP-2: tryptamine alone 1 μM; for blockade of the effects of DMT on differentiation: antagonist 1 μM with DMT 1 μM
[2] = system: adult neural stem cells derived from the subgranular zone of the hippocampus; assay: Neural stem cell proliferation (Ki67) in neurospheres; format: cell-based, mice; details: 7 days; for blockade of DMT-induced increase in Ki67: antagonist 1 μM with DMT 1 μM
[3] = system: adult neural stem cells derived from the subgranular zone of the hippocampus; assay: Stemness markers (musashi-1, nestin, SOX-2) in neurospheres, Western blot; format: cell-based, mice; details: 7 days; for blockade of the DMT-induced reduction of musashi-1, nestin and SOX-2: antagonist 1 μM with DMT 1 μM
[4] = system: adult neural stem cells derived from the subgranular zone of the hippocampus; assay: Neurosphere formation (number and size); format: cell-based, mice; details: 7 days; for blockade of DMT-induced increase in neurosphere number and size: antagonist 1 μM with DMT 1 μM
[5] = 3 days differentiation conditions
[6] = DMT 1 μM, vs vehicle-treated cultures

Structure (SMILES) | effect on Tuj1 and MAP-2 expression in the presence of Ritanserin [1] | expression of the two neuronal markers Tuj1 and MAP-2 [1, 5] | blockade of DMT-induced increase in Ki67 [2] | blockade of the DMT-induced reduction of musashi-1, nestin and SOX-2 [3] | blockade of the effects of DMT on differentiation [1] | blockade of DMT-induced increase in neurosphere number and size [4] | other results
COc1ccc2[nH]cc(CCN(C)C)c2c1 [5-MeO-DMT, 5-methoxy-N,N-dimethyltryptamine] | maintained | increase in the expression |  |  |  |  | 
CN1CCN(CCc2ccc(Cl)c(Cl)c2)CC1 [BD1063] |  |  | blocked | blocked | blocked | blocked | 
CCN(CC)CCc1c[nH]c2ccccc12 [DET, N,N-diethyltryptamine] | maintained | increase in the expression |  |  |  |  | 
CN(C)CCc1c[nH]c2ccccc12 [DMT, N,N-dimethyltryptamine] |  |  |  |  |  |  | number of Ki67-positive cells ([2]; DMT 1 μM): increase; protein levels of musashi-1, nestin and SOX-2 in the neurospheres ([3]; DMT 1 μM, vs saline): significantly reduced; expression of neuronal markers (Tuj1 & MAP-2), oligodendrocyte marker (CNPase) and astrocyte marker (GFAP) ([1]; DMT 1 μM, 3 days differentiation conditions): increase in the expression; number of neurospheres [4, 6]: significantly higher; size of the neurospheres [4, 6]: increased significantly
CCCN(CCC)CCc1c[nH]c2ccccc12 [DPT, N,N-dipropyltryptamine] | maintained | increase in the expression |  |  |  |  | 
COc1ccccc1N1CCN(CCN(C(=O)C2CCCCC2)c2ccccn2)CC1 [WAY100635] |  |  | not blocked | not blocked | not blocked | but not by | 
CSc1ccc2c(c1)C(N1CCN(C)CC1)Cc1ccccc1S2 (stereo not drawn) [methiothepin] |  |  | not blocked | not blocked | not blocked | but not by | 
Cc1nc2sccn2c(=O)c1CCN1CCC(=C(c2ccc(F)cc2)c2ccc(F)cc2)CC1 [ritanserin] |  |  | not blocked | not blocked | not blocked | but not by | 
